Patent US9853225B2, “Chalcogen-containing organic compound and a use thereof” (JNC CORPORATION, priority 2013, dated 2017)
Some values that stand alone complete this part of the results.

Test: Evaluation of thermal stability, DSC
Format: physicochemical
Details: heating 5° C. per minute

phase transition points (first phase transition point): 217 °C | phase transition points (second phase transition point): 260 °C
Compound: CCCCCCCCCCc1ccc2cc3c(cc2c1)sc1cc2c(cc13)sc1cc3cc(CCCCCCCCCC)ccc3cc12 [Example 4, 3,11-didecyldinaphtho[2,3-d:2′,3′-d′]benzo[1,2-b:4,5-b′]dithiophene]
